System: SARS-CoV-2 nucleoprotein (NP) expression
Assay type: cell-based

COc1ccc([C@@H]2CC(=O)c3c(O)cc(O)cc3O2)cc1O [HE, Hesperetin]
expression of NP in Vero-E6 cells (indirect immunofluorescence): significantly inhibited the expression of NP in Vero-E6 cells in a dose-dependent manner

COc1c(O)cc2oc(-c3ccccc3)cc(=O)c2c1O [OA, Oroxylin A]
expression of NP in Vero-E6 cells (indirect immunofluorescence): significantly inhibited the expression of NP in Vero-E6 cells in a dose-dependent manner

O=C(O)[C@H]1O[C@@H](Oc2cc3oc(-c4ccc(O)cc4)cc(=O)c3c(O)c2O)[C@H](O)[C@@H](O)[C@@H]1O [SC, Scutellarin]
expression of NP in Vero-E6 cells (indirect immunofluorescence): significantly inhibited the expression of NP in Vero-E6 cells in a dose-dependent manner

Source: paper PMC9618446 (Biomedicine & Pharmacotherapy, 2022)
